Test results: patent US12551573B2, “Compositions and methods for the targeting of PCSK9” (Scribe Therapeutics Inc., priority 2022, dated 2026)
Read-outs that look alike come from different tables or passages of the source.

Tested on: HBEGF locus
Format: cell-based, human
Conditions: high-throughput screen of dXR repression of the HBEGF gene
[1] = abundance of each domain in the library before and after diphtheria toxin selection, HEK293T cells
[2] = change in abundance of each domain in the library before and after diphtheria toxin selection

Molecule | Log2 (fold change) [1] | Log2 (fold change) [2]
DOMAIN_16638 (protein, listed as Macaca nemestrina) YQTPVSFKDVVVGFTQEEWHRLSPAQRALYRDVMLETYSNLLSVGYEGTKPDVILRLEQEEAPWIGEAACPGCHCWEDIWQ | 3.3871 | 
DOMAIN_16648 (protein, listed as Physeter macrocephalus) DEALMAFKDVAVAFTQKEWKLLSPAQRTLYRDVMLENYSHMVSLGIAFPKPKLITQLEQGEEPWREESESLLDLCPAEPRT | 3.629 | 
DOMAIN_16936 (protein, listed as Rhinopithecus roxellana) LKDLVTFKDVAIDFSQEEWQWMNPAQKHLYRSMMLENYQSLVSLGLCISKPYVISLLEQGREPWEMTSEMTRSPFSDWESI | 2.9808 | 
DOMAIN_16677 (protein, listed as Pongo sp.) AQESVMFSDVSVDFSQEEWECLNDDQRDLYRDVMLENYSNLVSMGHSVSKPNVISYLEQGKEPWLVDRELTRGQWPVLESR | 3.1577 | 
DOMAIN_16630 (protein, Cebus imitator) FQEPVTFEDVAVYFTQNEWTSLQPSQRALFREVMLENYATVTSLSAFPFPKPDLIFRLEQGEAAWGPDPWTLAGEEALRGL | 3.2435 | 
DOMAIN_16771 (protein, listed as Saimiri boliviensis) FQEPVTFEDVVVYFTQNEWTSLQPSQRALYREVMLENYATVTSLSAFPFSKPDLIFRLEQGEAAWGSDPWTLAGEEAPRGL | 3.3025 | 
DOMAIN_16776 (protein, listed as Callorhinus ursinus) ARASLSFEDVAVGFSWEEWQLLAPSQKDLYRDVMLENYRNLVSVGYEASKPDSVFQLEQGEPPWMVEGAAQSQTCQEEIWE | 3.0877 | 
DOMAIN_16856 (protein, listed as Ursus maritimus) ARASLSFEDVAVGFSWEEWQLLAPSQKDLYRDVMLENYRNLVSVGYQASKLDSLFQSEQGGPPWTVEGAAQSQTCPEEIWE | 2.7613 | 
DOMAIN_26070 (protein, listed as Geotrypetes seraphini) DRVKFTFSDVAVYFSEEEWQLLEEQQKELYQNVMKENYTTLMSLGYTTVKPDVISKIEQGKQPLVSSPSGSKGRRAIGRPS |  | 3.7958
DOMAIN_16399 (protein, listed as Rhinopithecus roxellana) FQRSVLFSDVSIDFSPEEWEYLDLEQKDLYRDVMLENYSNLVSLGCFISKPDVISLLEQGKEPWKVVRKGRRQYPDLETKY | 4.0639 | 
DOMAIN_16696 (protein, listed as Tursiops truncatus) HQEVVTFEDVAVYFTQTEWAGLSPAQRALYRSVMLEIYGNLTSLGYPVPKPALVSLLERGDLPWGLETRDDPPAQGTKDIC | 3.0806 | 
DOMAIN_16773 (protein, listed as Balaenoptera acutorostrata) HQEVVTFEDVAVYFTQTEWAGLSPAQRALYRSVMLEIYGNLTSLGYPVPKPALVSLLERGDLPWGLETRDDRPAQGTKDIC | 4.5309 | 
DOMAIN_16973 (protein, Delphinapterus leucas) HQEVVTFEDVAVYFTQTEWAGLSPAQRALYRSVMLEIYGNLTSLGYPVPKPALVSLLERGDLPWGLETQDDPPAQGTKHIC | 3.0187 | 
DOMAIN_16809 (protein, Delphinapterus leucas) KDQGSLTLEDVAVDFTWEEWQLLAPAQKDLYRDVMLENYSNLLSIGYQASKPDALSRLERGEPWPVEDEIHSQICPEMRKD | 2.4357 | 
DOMAIN_16517 (protein, listed as Callithrix jacchus) EPGPVTFGDVAVYFSREEWGCLRPAQRALYRDVMRETYSHLGALGVEGSKPALISWVEEEAELWGPAAQDPEVAKRPTEAD | 3.3189 | 
DOMAIN_26322 (protein, listed as Geotrypetes seraphini) MQVKFEDVAVSFSQEEWEYLDEGQKELYREVMKENYETLLSLGLKCLQKIHESDRPFTYPACGKSFNHQSNLRKHKRNHTG |  | 2.9265
DOMAIN_16876 (protein, listed as Callorhinus ursinus) LQKSVTFEDVAVYFTQTEWDGLSPAQRALYRDVMLENYGNVASLGFSLFKPAVISQLEGAGELGGPSPLVDGTETGPQGLW | 3.2183 | 
DOMAIN_16763 (protein, listed as Monodelphis domestica) AQVLVTFQDVAVDFTQEEWRLLDLGQKELYKEVMLENVQNMLFLGLPVPREDWISHFDQGRAPWMLEGEGPSNSRLDGQRR | 2.9244 | 
DOMAIN_16597 (protein, Cebus imitator) AQESVMFSDVSIDFSQEEWECLNDDQRDLYRDVMLENYSNLVSMAGHSISKPNVISYLEQGKEPWLVDREITSGQWPVLES | 2.9869 | 

Molecule | Log2 (fold change) [1] | Log2 (fold change) [2]
DOMAIN_16953 (protein, listed as Callorhinus ursinus) SQSLVTFGDVAVDFSQEEWEWLNSAQRNLYRSVMLENYRNLVSLGLCVSKPDMISSLEQRKEPWMVKRKLTRGRCPDLKTV | 3.3286 | 
DOMAIN_27385 (protein, listed as Octodon degus) LLTFEDVAVHFSEEEWQLLDPNQKTLYNEVMWDICEAASFVGLKFKNDTGNAEPSSVSALEIQAAERQGSKTRKNVARKRK |  | 4.1339
DOMAIN_16576 (protein, Pan troglodytes) SQESVSFKDVTVGFTQEEWQHLDPSQRALYRDVMLENYSNLVSVGYCVHKPEVIFRLQQGEEPWKLEEEFPSQSFPEVWTA | 2.6949 | 
DOMAIN_16703 (protein, listed as Phascolarctos cinereus) CQETLTFKDVAVDFTREEWGHLGPAQRDLYKEVMLDNYRNLVSLGLQVSKPDVIFQLERGESPSMLEGKDSSDPCPEFLSQ | 3.3969 | 
DOMAIN_16651 (protein, Delphinapterus leucas) QAQETLTFEDVAVDFTWEEWQLLAPPQKDLYRDVMLENYSNLLSVGFQASKPNVLSKLGQGEPWTMEDEIHCQTRSEIWKV | 2.0926 | 
DOMAIN_16516 (protein, listed as Macaca mulatta) RPESVTFEDVAVYFSENEWIGLGPAQRALYRDVMLENYGAVASLAAFPFPKPALISQLERGEAPWCSVPWGALDGEDPRSI | 3.8473 | 
DOMAIN_16673 (protein, listed as Phascolarctos cinereus) SLESVTFQDVAVNFTQEEWGHLEPAQKDLYREVMLENYQNFVSLGLPFSKPHVISQLERGEAPWITERDVPRVSCQDFFIQ | 3.0938 | 
DOMAIN_16478 (protein, listed as Rhinopithecus roxellana) MVSFEDVAVPLSQEEWNCLIPAQRGLYRDVMLETYGNLVSLGLQASKPDVISRLEQGDEPWTPHILRTQGSWSWRHKREGY | 2.8285 | 
DOMAIN_16865 (protein, listed as Papio anubis) MVSFEDVAVLLSQEEWDCLIPAQRGLYRDVMLETYGNLVSLGLQASKPDVISRLEQGDEPWTPHILRTQRSWSWRHKRECY | 3.9619 | 
DOMAIN_16744 (protein, listed as Enhydra lutris) QAEVTFEDVAVLFSREEWGRLGPAQRGLYRDVMLETYRNLVSLGAGPAGPKPGVITQLERGDEPWVLDAQGTEGKERLRVS | 3.637 | 
DOMAIN_16994 (protein, listed as Odocoileus virginianus) RPRAVKFGDVALYFSREEWGCLRPAQRALYRDVMQETYGHLGALGCAGPKPALISWLERNTDDWEPAALDPQECPKGVAVQ | 3.0575 | 
DOMAIN_26732 (protein, Meleagris gallopavo) CSKEPLCLQEPVSFADVAVYFSREEWALLDPAQRALYWDVMLETYECIASLGGEDPWIPDVHGLKDMAGDTCPGDGIADLK |  | 2.7548
DOMAIN_16664 (protein, listed as Leptonychotes weddellii) SQEPVTFEDVAVYFTQNQWASLDPMQRALYLEVMLENYANITSLAALPFPKPDLILQLEQGEAPWDLDPWTPLEGEALEGV | 3.4502 | 
DOMAIN_16618 (protein, listed as Ursus maritimus) HQDLVTFKDVAVYFTQTEWAGLSPAQKALYRSVMLENYGNLTSLGYPVPKPALISLLEGGNLPWGLEAQDNPSAERTKDIC | 3.1184 | 
DOMAIN_16629 (protein, Cebus imitator) SLGSELFRDVAIVFSQEEWQWLAPAQRDLYRDVMLETYSNLVSLGLAISKPDVISFLEQGREPWMVERVVAGGLCPVLESR | 3.7569 | 
DOMAIN_16659 (protein, listed as Leptonychotes weddellii) PQEPVTFEDVAVYFTQNQWASLDPTQRALYREVMLENYASVASLVVFPFPKPDLVSQLEREEAPWGPDPWEAEVLRGICPG | 3.8913 | 
DOMAIN_16734 (protein, listed as Leptonychotes weddellii) PQVLVSFEDVAVFLSREEWGCLGPAQRGLYSNVMLETYRNLISLGLQGSKPDVISRLEKGEEPWAPYSPKIEEGWIRSHRS | 3.4791 | 
DOMAIN_27060 (protein, listed as Gopherus agassizii) VTFEEVAVYFSEEEWALLDPGQRALYRDVMQENYETVISLGKDFCPLSPEQVALCGMLCGRSEGHVSQSPEQRETCKRQHK |  | 2.7943
